# Values joined by “and” are separate entries in the source; they are usually repeats but may differ in a detail not shown here. Identical values can stand only once. Counter-ions that a name gives are not always drawn. Out of some 5,800 compounds screened, about 620 (11%) showed activity.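 The calls were made as follows: active = score above a cut-off or among the top three wells of a plate; in these data no inactive exceeds 0.85.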 This is a selection; strong and weak results do not stand in their true shares.
# System: primary human hepatic stellate cells (donor 1)
# Experiment: scaled lipid accumulation score (0 = DMSO-like, 1 = nortriptyline-like); higher = stronger HSC inactivation (lipid re-accumulation), active = hit call of the paper
# Conditions: 48 h
# Method: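 Primary lipid accumulation screen in primary human hepatic stellate cell myofibroblasts (donor 1, passage 8) in 384-well plates. 100 nL of library compound was pin-transferred into 30 µL medium in duplicate, and cells were treated for 48 h. The 'Scaled' score combines distance from plate baseline, toxicity and reproducibility penalties, and is normalised to nortriptyline (positive) and DMSO (negative) controls on each plate. A hit is defined as scaled >0.85 or among the top 3 wells per plate.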
# [1] = library stock concentration: 80 uM
# [2] = library stock concentration: 400 uM
# [3] = library stock concentration: 2 mM
# [4] = library stock concentration: 10 mM
# [5] = library stock concentration: 3.33 mM
# [6] = library stock concentration: 1 mM
structure (smiles),measurement,setting,value
CCN1CCC(n2cc(CNc3cc(Cl)c4ncc(C#N)c(Nc5ccc(F)c(Cl)c5)c4c3)nn2)CC1,scaled lipid accumulation score,[1],inactive: ≤ -0.009
same,scaled lipid accumulation score,[2],inactive: ≤ -0.009
same,scaled lipid accumulation score,[3],inactive: ≤ -0.009
Nc1ccc(S(=O)(=O)Nc2ccccn2)cc1 [Sulfapyridine],scaled lipid accumulation score,,inactive: ≤ 0
same,scaled lipid accumulation score,library stock concentration: 8 mM,inactive: ≤ 0
same,scaled lipid accumulation score,[4],inactive: ≤ 0
N#Cc1c(-c2ccccc2)no[n+]1[O-] [Furoxan],scaled lipid accumulation score,library stock concentration: 26.7 mM,active: 1
O=c1[nH]c(=O)c2ccccc2o1,scaled lipid accumulation score,[4],inactive: ≤ 0
Nc1ccn([C@@H]2O[C@H](CO)[C@@H](O)[C@@H]2O)c(=O)n1 [Cytosine-1-beta-D-arabinofuranoside hydrochloride],scaled lipid accumulation score,[4],inactive: ≤ 0
Nc1ccn([C@@H]2O[C@H](CO)[C@@H](O)[C@@H]2O)c(=O)n1 [Cytarabine],scaled lipid accumulation score,[4],inactive: ≤ 0
"Nc1ccn([C@@H]2O[C@H](CO)[C@@H](O)[C@@H]2O)c(=O)n1 [2(1H)-Pyrimidinone, 4-amino-1-?-D-arabinofuranosyl- [CAS]]",scaled lipid accumulation score,[4],inactive: ≤ 0
N=C(NC(=O)c1nc(Cl)c(N)nc1N)Nc1ccccc1 [Phenamil],scaled lipid accumulation score,library stock concentration: 16.4 mM,active: 1.07
O=S1(=O)c2cccc3cccc(c23)N1CCCN1CCN(c2ccc(F)cc2)CC1 [Fananserin],scaled lipid accumulation score,[4],inactive: 0.048
Cc1ccc(NC(=O)c2ccc(CN3CCN(C)CC3)cc2)cc1Nc1nc(-c2cccnc2)cs1 [Masitinib (AB1010)],scaled lipid accumulation score,[5],active: 1.13
same,scaled lipid accumulation score,[4],active: 0.856
CC#CCC(C)[C@@H](O)/C=C/[C@@H]1[C@H]2C/C(=C\CCCC(=O)O)C[C@H]2C[C@H]1O (stereo partly drawn) [5-cis-15(R)-Iloprost],scaled lipid accumulation score,[6],inactive: ≤ 0
COc1ccnc(C[S+]([O-])c2nc3cc(OC(F)F)ccc3[nH]2)c1OC (stereo not drawn) [Pantoprazole],scaled lipid accumulation score,library stock concentration: 5.2 mM,inactive: 0.015 and inactive: ≤ 0
same,scaled lipid accumulation score,[4],inactive: ≤ -0.027
COc1ccnc(C[S+]([O-])c2nc3cc(OC(F)F)ccc3[nH]2)c1OC (stereo not drawn),scaled lipid accumulation score,[4],inactive: ≤ 0
Cc1cc(C)c(S(=O)(=O)n2cc(C)cc2C)c(C)c1,scaled lipid accumulation score,[5],inactive: ≤ -0.009
same,scaled lipid accumulation score,[4],inactive: ≤ 0
Cc1[nH]c(C=C2C(=O)Nc3ccc(S(=O)(=O)N(C)c4cccc(Cl)c4)cc32)c(C)c1C(=O)N1CCN(C)CC1,scaled lipid accumulation score,[5],active: 1.39
same,scaled lipid accumulation score,[4],active: 1.27
Cc1[nH]c2ccccc2c1CCNCc1ccc(/C=C/C(=O)NO)cc1 [Panobinostat (LBH589)],scaled lipid accumulation score,[5],inactive: 0.728
same,scaled lipid accumulation score,[4],inactive: 0.587
CCCCC/C=C\C/C=C\C/C=C\C/C=C\CCCC(=O)C(F)(F)F [Arachidonyl Trifluoromethyl Ketone],scaled lipid accumulation score,[6],inactive: ≤ 0
CC(=O)N[C@@H](C=O)[C@@H](O)[C@H](O)[C@H](O)CO [Acetylglucosamine],scaled lipid accumulation score,[4],inactive: ≤ 0
C(/c1c2cccc1)(=C/CCN(C)C)\c3c(cccc3)C=C2.Cl [Cyclobenzaprine hydrochloride],scaled lipid accumulation score,,active: 0.86
O=C1C(=O)c2ccccc2C(O)=C1C1CCC(c2ccc(Cl)cc2)CC1 (stereo not drawn) [Atovaquone],scaled lipid accumulation score,[5],inactive: ≤ 0
same,scaled lipid accumulation score,[4],inactive: ≤ 0
CCN(CC)CCNC(=O)c1c(C)[nH]c(/C=C2\C(=O)Nc3ccc(F)cc32)c1C.O=C(O)C[C@H](O)C(=O)O [Sunitinib malate],scaled lipid accumulation score,[3],active: 0.997
CCOC(=O)c1[nH]c2cc(Cl)ccc2c1C(C(=O)NC(C)(C)C)N(C=O)Cc1ccc(Cl)cc1 (stereo not drawn),scaled lipid accumulation score,[5],inactive: ≤ -0.009
same,scaled lipid accumulation score,[4],inactive: 0.547
CCCCN1CCCCC1C(=O)Nc1c(C)cccc1C (stereo not drawn) [Bupivacaine HCl],scaled lipid accumulation score,[5],inactive: ≤ 0
same,scaled lipid accumulation score,library stock concentration: 6.9 mM,inactive: ≤ 0
same,scaled lipid accumulation score,[4],inactive: ≤ 0
CCCCN1CCCCC1C(=O)Nc1c(C)cccc1C (stereo not drawn) [Bupivacaine hydrochloride],scaled lipid accumulation score,,inactive: ≤ 0
same,scaled lipid accumulation score,library stock concentration: 6.2 mM,inactive: ≤ 0
same,scaled lipid accumulation score,[4],inactive: ≤ -0.027
CCOC(=O)c1ccc(N=Nc2ccc(O)c(CC(=O)O)c2)cc1,scaled lipid accumulation score,[6],inactive: ≤ 0
CCOC(=O)NNc1nncc2ccccc12 [Todralazine hydrochloride],scaled lipid accumulation score,,inactive: 0.065
same,scaled lipid accumulation score,[4],inactive: ≤ 0
CCCCCCCCCCCCCCCCCCCCCCCCCCCCCCO [n-Triacontanol],scaled lipid accumulation score,[6],inactive: 0.026
C=C1/C(=C\C=C2/CCC[C@]3(C)[C@@H]([C@H](C)/C=C/[C@H](C)C(C)C)CC[C@@H]23)C[C@@H](O)C[C@@H]1O [Doxercalciferol],scaled lipid accumulation score,[5],inactive: ≤ 0
same,scaled lipid accumulation score,[4],inactive: ≤ 0
CC[C@@H](C(=O)[C@@H](C)[C@@H](O)[C@H](C)CCc1ccc(C)c(O)c1C(=O)O)[C@H]1O[C@](CC)([C@H]2CC[C@](O)(CC)[C@H](C)O2)C[C@@H]1C [Lasalocid sodium salt],scaled lipid accumulation score,,inactive: 0.439
CC[C@@H](C(=O)[C@@H](C)[C@@H](O)[C@H](C)CCc1ccc(C)c(O)c1C(=O)O)[C@H]1O[C@](CC)([C@H]2CC[C@](O)(CC)[C@H](C)O2)C[C@@H]1C [Lasalocid sodium],scaled lipid accumulation score,[4],inactive: 0.665
C[C@H]1O[C@@H](Oc2c(-c3cc(O)c(O)c(O)c3)oc3cc(O)cc(O)c3c2=O)[C@@H](O)[C@@H](O)[C@@H]1O [Myricitrin],scaled lipid accumulation score,[5],inactive: ≤ 0
same,scaled lipid accumulation score,[4],inactive: 0.154
O=C(O)CCC/C=C\C[C@@H]1[C@@H](/C=C/[C@@H](O)COc2cccc(Cl)c2)[C@H](O)C[C@@H]1O [(+)-Cloprostenol],scaled lipid accumulation score,[6],inactive: ≤ 0
Cc1ccc2c(=O)c3cccc(CC(=O)O)c3oc2c1C [DMXAA (Vadimezan)],scaled lipid accumulation score,[5],inactive: ≤ 0
same,scaled lipid accumulation score,[4],inactive: ≤ 0
CC(C)(C)c1ccc(C(O)CCCN2CCC(C(O)(c3ccccc3)c3ccccc3)CC2)cc1 (stereo not drawn) [Terfenadine],scaled lipid accumulation score,,inactive: 0.258
same,scaled lipid accumulation score,[4],inactive: 0.153
CC(COc1ccccc1)NC(C)C(O)c1ccc(O)cc1 (stereo not drawn) [Isoxsuprine hydrochloride],scaled lipid accumulation score,,inactive: 0.185
same,scaled lipid accumulation score,library stock concentration: 5.9 mM,inactive: 0.106
same,scaled lipid accumulation score,[4],inactive: 0.237
CC(COc1ccccc1)NC(C)C(O)c1ccc(O)cc1 (stereo not drawn) [Duvadilan],scaled lipid accumulation score,[4],inactive: 0.493
C[C@@H]1CCNC(=O)c2cc3ccc(C(=O)Nc4nc5ccccc5n4CCCN(C)C)cc3n21,scaled lipid accumulation score,[1],inactive: ≤ -0.001
same,scaled lipid accumulation score,[2],inactive: ≤ -0.001
same,scaled lipid accumulation score,[3],inactive: ≤ -0.001
same,scaled lipid accumulation score,[4],inactive: 0.117
Cc1nc(-c2ccc(OCC(C)C)c(C#N)c2)sc1C(=O)O [Febuxostat],scaled lipid accumulation score,[1],inactive: ≤ 0
same,scaled lipid accumulation score,[2],inactive: ≤ 0
same,scaled lipid accumulation score,[3],inactive: ≤ 0
same,scaled lipid accumulation score,[5],inactive: 0.019
same,scaled lipid accumulation score,[4],inactive: ≤ 0 and inactive: 0.033
Cc1nc(-c2ccc(OCC(C)C)c(C#N)c2)sc1C(=O)O,scaled lipid accumulation score,[4],inactive: ≤ 0
COc1ccc(CC2c3cc(OC)c(OC)cc3CC[N+]2(C)CCC(=O)OCCCCCOC(=O)CC[N+]2(C)CCc3cc(OC)c(OC)cc3C2Cc2ccc(OC)c(OC)c2)cc1OC (stereo not drawn) [Atracurium Besylate],scaled lipid accumulation score,[5],inactive: ≤ 0
same,scaled lipid accumulation score,[4],inactive: 0.109
COc1ccc(CC2c3cc(OC)c(OC)cc3CC[N+]2(C)CCC(=O)OCCCCCOC(=O)CC[N+]2(C)CCc3cc(OC)c(OC)cc3C2Cc2ccc(OC)c(OC)c2)cc1OC (stereo not drawn),scaled lipid accumulation score,[4],inactive: ≤ 0
COc1ccc(CC2c3cc(OC)c(OC)cc3CC[N+]2(C)CCC(=O)OCCCCCOC(=O)CC[N+]2(C)CCc3cc(OC)c(OC)cc3C2Cc2ccc(OC)c(OC)c2)cc1OC (stereo not drawn) [Atracurium besylate],scaled lipid accumulation score,,inactive: ≤ 0
CN(C)c1ccc(C(=C2C=CC(=[N+](C)C)C=C2)c2ccc(N(C)C)cc2)cc1 [Gentian violet],scaled lipid accumulation score,library stock concentration: 4.9 mM,inactive: 0.678
same,scaled lipid accumulation score,[4],inactive: ≤ 0
CN(C)c1ccc(C(=C2C=CC(=[N+](C)C)C=C2)c2ccc(N(C)C)cc2)cc1 [Crystal Violet],scaled lipid accumulation score,[5],inactive: ≤ 0
same,scaled lipid accumulation score,[4],inactive: 0.611
CC(C(=O)O)c1ccc2c(c1)CC(=O)c1ccccc1S2 (stereo not drawn) [Zaltoprofen],scaled lipid accumulation score,[5],inactive: ≤ 0
same,scaled lipid accumulation score,[4],inactive: ≤ 0
Oc1cc2c(cc1O)[C@@H]1c3ccc(O)c(O)c3OC[C@]1(O)C2 [Hematoxylin],scaled lipid accumulation score,[5],inactive: 0.024
same,scaled lipid accumulation score,[4],inactive: ≤ 0
CN[C@H]1CC[C@@H](c2ccc(Cl)c(Cl)c2)c2ccccc21 [Sertraline],scaled lipid accumulation score,,active: 1.23
Cc1nc(Nc2ncc(C(=O)Nc3c(C)cccc3Cl)s2)cc(N2CCN(CCO)CC2)n1 [Dasatinib],scaled lipid accumulation score,[1],inactive: ≤ 0
same,scaled lipid accumulation score,[2],inactive: 0.238
same,scaled lipid accumulation score,[3],inactive: 0.602
same,scaled lipid accumulation score,[5],inactive: 0.43
same,scaled lipid accumulation score,[4],inactive: 0.646 and inactive: 0.707
Cc1nc(Nc2ncc(C(=O)Nc3c(C)cccc3Cl)s2)cc(N2CCN(CCO)CC2)n1,scaled lipid accumulation score,[2],inactive: 0.775
same,scaled lipid accumulation score,[4],inactive: 0.677
CCN(CCO)CCCC(C)Nc1ccnc2cc(Cl)ccc12 (stereo not drawn) [Hydroxychloroquine sulfate],scaled lipid accumulation score,[4],inactive: 0.161
CCOC(=O)c1c(CSc2ccccc2)n(C)c2cc(Br)c(O)c(CN(C)C)c12 [Arbidol HCl],scaled lipid accumulation score,[5],inactive: 0.128
same,scaled lipid accumulation score,[4],inactive: 0.783
CCN1CCN(Cc2ccc(-c3cc4c(N[C@H](C)c5ccccc5)ncnc4[nH]3)cc2)CC1,scaled lipid accumulation score,[5],inactive: 0.668
same,scaled lipid accumulation score,[4],inactive: 0.465
CC(C)c1ccc2c(c1)c(SC(C)(C)C)c(CC(C)(C)C(=O)O)n2Cc1ccc(Cl)cc1,scaled lipid accumulation score,[4],inactive: ≤ 0 and inactive: 0.009
CC(C)c1ccc2c(c1)c(SC(C)(C)C)c(CC(C)(C)C(=O)O)n2Cc1ccc(Cl)cc1 [MK 886 (sodium salt)],scaled lipid accumulation score,[6],inactive: ≤ 0
"CC(C)CCOc1ccc(N)cc1 [CP 24,879 (hydrochloride)]",scaled lipid accumulation score,[6],inactive: ≤ 0
Cl.N=C(N)NCCC[C@H](N)C(=O)O,scaled lipid accumulation score,[4],inactive: ≤ 0
Nc1nc(OCc2ccccc2)c2nc[nH]c2n1 [O6-benzylguanine],scaled lipid accumulation score,[4],inactive: 0.24

# Reference: the supplement of paper PMC9135407
